Results from PubChem BioAssay AID1347073 (National Center for Advancing Translational Sciences (NCATS), 2019).
Out of some 45,000 compounds screened, about 200 (0.44%) were called active. Roughly 7% stayed inconclusive and do not appear here. Calls follow the shape of the dose curve; as a rule, active = well fitted activation curve with a large enough effect; inconclusive = small, poorly fitted or top-dose-only effect; inactive = no such curve, though single readings can be large or run the other way. The list shows a part of the results.

Assay: qHTS of TDP-43 Inhibitors: NCGC Sytravon Library Screen; also: 0% is about no effect; nearly all actives have a fitted effect of over 55% in size
Settings: yeast TDP-43 toxicity rescue, BacTiter-Glo growth, 24 h; series mostly up to 46.1 µM; growth rescue (activation): at the top concentration
Outline: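 TDP-43-expressing yeast, pregrown in raffinose, seeded at OD600 0.02 in galactose medium with compound for 24 hr at 30 deg C. Growth read by BacTiter-Glo luminescence, so rescue of toxicity appears as activation.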

Structure (SMILES)	growth rescue (activation)
COc1ccc(C(=O)NNC(=O)c2ccc(S(=O)(=O)N3CCOCC3)cc2)cc1	inactive: 18.9%
COc1ccc(C(C(=O)NC2CCCCC2)N(C(=O)c2snc(C(N)=O)c2N)c2ccc(OC)cc2OC)cc1 (centres undefined)	inactive: 5.25%
CC(=O)Oc1ccc(NC(=O)Cc2ccccc2)c(C(=O)O)c1	inactive: -6.56%
COc1ccc(-n2cnnc2SCC(=O)Nc2cccc([N+](=O)[O-])c2)cc1	inactive: 3.71%
CCC(C(=O)Nc1ccc(N2CCOCC2)c(S(=O)(=O)Nc2ccccc2OC)c1)c1ccccc1 (centres undefined)	inactive: 3.92%
COc1ccc(N2CCN(C(=O)c3c(-c4c(F)cccc4Cl)noc3C)CC2)cc1	inactive: 13.4%
COc1cccc(/C=N/Nc2nc(Nc3ccc([N+](=O)[O-])cc3)nc(N3CCCC3)n2)c1O	inactive: 24.2%
Cc1cccc(S(=O)(=O)NC(=O)C2(C)CCN2C(=O)Cc2ccc(-c3ccccc3)cc2)c1 (centres undefined)	inactive: 17.2%
CCC(C)(C)NC(=O)CN(C(=O)CCC(=O)Nc1nccs1)c1ccc2c(c1)OCO2	inactive: -3.31%
NC(=O)COC(=O)CC1CC2CCC1C2 (centres undefined)	inactive: 3.41%
Nc1nc(N)nc(-c2ccccn2)n1	inactive: 6.95%
O=C(NCc1ccncc1)C1Cc2c(-c3ccc(Cl)cc3)ccnc2O1 (centres undefined)	inactive: -1.77%
CC(C)Oc1ccccc1/C=N/Nc1ccccc1[N+](=O)[O-]	inactive: -9.17%
Cc1ccc(C=NNC(=O)c2cc(-c3cccnc3)nc3ccccc23)o1	inactive: -5.49%
Cn1c(=O)[nH]c(=O)c2c1nc(N1CCCCCC1)n2CCSc1nc2ccccc2[nH]1	inactive: -1.07%
COc1cccc(CN2CC(C(=O)NCCCn3cccn3)CCC2=O)c1 (centres undefined)	inactive: -0.157%
CCc1ccc[n+](-c2[nH]c(=O)sc2/C=N/N=C(\N)[O-])c1	inactive: -4.4%
S=C1NCN(CCc2ccccc2)CN1	inactive: -5.85%
CC(=O)NC(c1ccc(C)cc1)c1cc(Cl)c2cccnc2c1O (centres undefined)	inactive: 27.3%
O=[N+]([O-])c1cc(S(=O)(=O)N2CCCC2)ccc1N/N=C/c1cccnc1	inactive: 4.72%
Cc1cc(C(C)(C)C)ccc1OC(=O)C1=CC=CN2CCS(=O)(=O)N=C12	inactive: 9.3%
CS(=O)(=O)c1ccc2nc(NC(=O)c3cccc(NS(=O)(=O)c4ccc(F)c(F)c4)c3)sc2c1	inactive: -9.16%
CCOC(=O)c1c(C)n(-c2ccc(C)cc2)c2ccc(O)c(CN(C)C)c12	inactive: 14.5%

Structure (SMILES)	growth rescue (activation)
C=CCNC(=O)NC(=O)COC(=O)c1cccnc1SC	inactive: -8.76%
COC(=O)c1ccc(/C=N/NC(=O)CC(=O)NCc2cccnc2)cc1	inactive: -11.3%
O=C(CCS(=O)(=O)c1ccc(Br)cc1)Nc1ccccn1	inactive: -2.01%
CCN(c1ccccc1)S(=O)(=O)c1cc(C(=O)Nc2ccccc2Cl)ccc1F	inactive: -15.4%
CCc1ccc(N(C(=O)c2snc(C(N)=O)c2N)C(C(=O)NC2CCCC2)c2ccco2)cc1 (centres undefined)	inactive: 12.6%
COc1ccc(/C=N/NC(=O)Cc2cc(OC)c(OC)cc2[N+](=O)[O-])cc1	inactive: 9.63%
C#CCn1c(-c2ccccc2)ccc(C#N)c1=O	inactive: -0.135%
COc1cc(-c2cc(-c3ccc(O)cc3)nc(N)c2C#N)ccc1O	inactive: 9.38%
O=C(CCc1ccccc1)Nc1ccc(NC(=O)C2CCCCC2)nc1	inactive: 0.976%
O=S(=O)(NCCc1cccs1)c1ccc(Br)cc1	inactive: 27.4%
O=C1N/C(=C/c2ccc(Br)s2)C(=O)N1c1ccccc1	inactive: 4.76%
COc1ccc(C(=O)C2CCCN(C(=O)c3cccnc3OC)C2)c(C)c1 (centres undefined)	inactive: 6.97%
Cc1ccc2c([N+](=O)[O-])cccc2n1	inactive: 6.15%
CSc1ccc(CN(C)CC(=O)Nc2ccccc2Br)cc1	inactive: 13.3%
O=C(CN1CCSC1=O)N1CCN(S(=O)(=O)c2ccc(F)cc2)CC1	inactive: 0.179%
Fc1ccc(-c2nnn3c2nc(NCc2ccccc2)c2ccccc23)cc1	inactive: 8.15%
CCn1nc(C)cc1C(=O)NC1CCCc2c1cnn2-c1cc(F)cc(F)c1 (centres undefined)	inactive: 25.3%
CC(=O)c1ccc(OCc2cc(C(=O)N(C)Cc3ccon3)no2)cc1	inactive: 5.83%
NC(=O)c1ccccc1N(Cc1ccccc1)S(=O)(=O)c1ccccc1	inactive: -6.98%
CN(C(=S)Nc1ccc(Oc2ccccc2)cc1)c1ccc(O)cc1	inactive: 11.7%
Cc1ccc(OCC(=O)Nc2ccc(S(=O)(=O)Nc3ccccn3)cc2)c(C)c1	inactive: -3.73%
CCNc1c([N+](=O)[O-])c(=O)oc2ccccc12	inactive: 4.26%
C=CCN(CC=C)CCCOc1ccccc1C(=O)OC	inactive: -20%

Structure (SMILES)	growth rescue (activation)
N#C/C(=C\c1ccc(F)cc1)c1n[nH]c(Cn2cncn2)n1	inactive: 5.74%
O=c1[nH]c(C2CCN(S(=O)(=O)Cc3ccccc3)CC2)nc2c1nnn2Cc1cccc(Cl)c1	inactive: 6.59%
CC(C)NC(=O)c1ccc(Cl)cc1Cl	inactive: 14.1%
Cc1cc(N2CCN(C)CC2)nc2ccc(NC(=O)c3ccccc3F)cc12	inactive: 14.2%
CCOC(=O)N(C)c1c(CC)nc2c(OCc3ccc(OC(F)F)cc3)cccn12	inactive: 11.8%
CCN(CC)c1ccc(C2Nc3cccc4cccc(c34)N2)cc1	inactive: 3.72%
CC(=NC(C)C)C1=C(O)C(C)OC1=O (centres undefined)	inactive: -1.08%
CC(C)(C)CC(=O)Nc1nc(C(N)Cc2ccc(C(F)(F)F)cc2)cs1 (centres undefined)	inactive: -8.3%
O=C(CN1CCN(S(=O)(=O)c2ccc(Br)cc2)CC1)N/N=C/c1ccncc1	inactive: 25.7%
O=S(=O)(NCc1csc(-c2ccccc2)n1)c1ccccc1	inactive: 28.6%
CC(C)(C)c1nnc(NC(=O)NS(=O)(=O)c2ccccc2)s1	inactive: -23.9%
CCN(Cc1ccccc1)C(=O)COC(=O)c1n[nH]c2ccccc12	inactive: 14.6%
Cc1ccc(N2CC(C(=O)Nc3ccc4c(c3)OCO4)CC2=O)cc1C (centres undefined)	inactive: -10.6%
COc1ccccc1OCC(=O)NC1CCCc2ccccc21 (centres undefined)	inactive: -2.64%
Cc1ccc(NC(=O)CCN2C(=O)C3C4CCC(C4)C3C2=O)cc1[N+](=O)[O-] (centres undefined)	inactive: 7.87%
COc1ccc(S(=O)(=O)N2CCCCC2)cc1NS(=O)(=O)c1ccc(CNC(C)=O)cc1	inactive: 28.6%
O=C(NC(=S)NCCN1CCOCC1)c1ccc(Cl)cc1	inactive: 2.72%
Cc1nnc(SCC(=O)Nc2sc3c(c2C#N)CCCCC3)n1N	inactive: 8.98%
C=CCn1c(-c2ccncc2)n[nH]c1=S	inactive: 8.1%
COc1cccc(CNc2nc3cc(-c4cnn(Cc5ccccc5)c4)sc3c(=O)n2C)c1	inactive: 19.4%
CCOC(=O)c1c(C)n(C)c2cc(-c3ccc(C)cc3)c(O)cc12	inactive: 1.57%
O=C(NCCCc1ccccc1)c1cccc([N+](=O)[O-])c1	inactive: 25.2%
CCOc1ccc(N(CC(=O)NCc2ccccc2)C(=O)Cn2nnc(-c3ccc(C)o3)n2)cc1	inactive: 16.9%
